Results published in the supplement of paper PMC12217912.
This is one part of the list. Sequences were assembled here from the parent chain. Values near 0.05 are background.

B1: TEV protease; numbered along this chain (parent)
chain: MGESLFKGPRDYNPISSSICHLTNESDGHTTSLYGIGFGPFIITNKHLFRRNNGTLVVQSLHGVFKVKDTTTLQQHLVDGRDMIIIRMPKDFPPFPQKLKFREPQREERICLVTTNFQTKSMSSMVSDTSCTFPSGDGIFWKHWIQTKDGQCGSPLVSTRDGFIVGIHSASNFTNTNNYFTSVPKNFMELLTNQEAQQWVSGWRLNADSVLWGGHKVFMVKPEEPFQPVKEATQL

Variants of: B1
Assay: raw area under fraction-flipped curve 0-4 h after induction (AUC4h, not background-subtracted), DNA-recorder readout of cleavage of the substrate (dimensionless); higher = more cleavage of the substrate by the protease variant
Settings: temperature: 34 °C; time window: 0-4 h after rhamnose induction
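Also: Bxb1 expression induced with 0.2% (w/v) L-rhamnose at OD600 near 0.5, cultures sampled hourly, flipped fraction per protease–substrate barcode pair counted by paired-end Illumina sequencing.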

Variant	area with substrate ENLYFQG	area with substrate ENLYFQI	area with substrate ENLYFQK	area with substrate ENLYFQN	area with substrate ENLYFQP	area with substrate ENLYFQQ	area with substrate ENLYFQR	area with substrate ENLYFQS	area with substrate ENLYFQT	area with substrate ENLYFQV	area with substrate ENLYFQY	area with substrate ENLYFQL	area with substrate ENLYFQF	area with substrate ENLYFQH	area with substrate ENLYFQM	area with substrate ENLYFQW
MGESLFKGPRDYNPISSSICHLTNESDGHTTSLYGIGFGPFIITNKHLFRRNNGTLVVQSLHGVFKVKDTTTLQQHLVDGRDMIIIRMPKDFPPFPQKLKFREPQREERICLVTTNFQTKSMSSMVSDTSCTFPSGDGIFWKHWIQTKDGQCGSPLVSTRDGFIVGIHSASNFTRTNNYFTSVPKNFMELLTNQEAQQWVSGWRLNADSVLWGGHKVFMVKPEEPFQPVKEATQL [N175R]	0.118	0.0508	0.05	0.0879	0.0657	0.0689	0.057	0.125	0.0471	0.0613	0.064					
MGESLFKGPRDYNPISSSICHLTNESDGHTTSLYGIGFGPFIITNKHLFRRNNGTLVVQSLHGVFKVKDTTTLQQHLVDGRDMIIIRMPKDFPPFPQKLKFREPQREERICLVTTNFQTKSMSSMVSDTSDTFPSGDGIFWKHWIQTKDGQCGSPLVSTRDGFIVGIHSASNFTNTNNYFTSVPKNFMELLTNQEAQQWVSGWRLNADSVLWGGHKVFMVKPEEPFQPVKEATQL [C131D]	0.0623			0.0915			0.0754	0.0907				0.0633				
MGESLFKGPRDYNPISSSICHLTNESDGHTTSLYGIGFGPFIITNKHLFRRNNGTLVVQSLHGVFKVKDTTTLQQHLVDGRDMIIIRMPKDFPPFPQKLKFREPQREERICLVKTNFQTKSMSSMVSDTSCTFPSGDGIFWKHWIQTKDGQCGSPLVSTRDGFIVGIHSASNFTNTNNYFTSVPKNFMELLTNQEAQQWVSGWRLNADSVLWGGHKVFMVKPEEPFQPVKEATQL [T114K]				0.0819	0.0611			0.101			0.0508		0.102	0.0438	0.0789	0.0647
MGESLFKGPRDYNPISSSICHLTNESDGHTTSLYGIGFGPFIITNKHLFRRNNGTLVVQSLHGVFKVKDGTTLQQHLVDGRDMIIIRMPKDFPPFPQKLKFREPQREERICLVTTNFQTKSMSSMVSDTSCTFPSGDGIFWKHWIQTKDGQCGSPLVSTRDGFIVGIHSASNFTNTNNYFTSVPKNFMELLTNQEAQQWVSGWRLNADSVLWGGHKVFMVKPEEPFQPVKEATQL [T70G]	0.0897	0.056	0.0763	0.0627	0.0643			0.0759	0.052			0.0574		0.0603	0.0964	0.063
MGESLFKGPRDYNPISSSICHLTNESDGHTTSLYGIGFGPFIITNKHLFRRNNGTLVVQSLRGVFKVKDTTTLQQHLVDGRDMIIIRMPKDFPPFPQKLKFREPQREERICLVTTNFQTKSMSSMVSDTSCTFPSGDGIFWKHWIQTKDGQCGSPLVSTRDGFIVGIHSASNFTNTNNYFTSVPKNFMELLTNQEAQQWVSGWRLNADSVLWGGHKVFMVKPEEPFQPVKEATQL [H62R]	0.111	0.0612		0.0816	0.0683		0.055	0.101	0.0594			0.0607		0.0822	0.0904	0.114
MGESLFKGPRDYNPISSSICHLTNESDGHTTSLYGIGFGPFIITNKHLFRRNNGTLVVQSLHGVFKVKDTTTLQQHLVDGRDMIIIRMPKDFPPFPQKLKFREPQREERICLVTTNFQTKSMSSMVSDTSCTFPSGDGIFWKHWIQTKDGQCGSPLVSTRDGFIVGIHSASNFTNTNNYFTSVPKNFMELLTNQEAQQLVSGWRLNADSVLWGGHKVFMVKPEEPFQPVKEATQL [W199L]		0.0443		0.0651				0.0713			0.0576			0.0558		
MGESLFKGPRDYNPISSSICHLTNESDGHTTSLYGIGFGPFIITNKHLFRRNNGTLVVQSLHGVFKVKDTTTLQQHLVDGRDMIIIRMPKDFPPFPQKLKFREPQREERICLVTTNFQTKSMSSMVSDTSCTFPSGDGIFWKHWIQTKDGQCGSPLVSTRDGFIVGIHSASNFTNTNNYFTSVPKNFMELLTNQEAQQWVSGWRLNADSVLWGGHKVFMVKPEEVFQPVKEATQL [P225V]	0.0841	0.0626	0.0754	0.0664				0.101	0.0602			0.0596		0.0891	0.0942	0.0714
MGESLFKGPRDYNPISSSICHLTNESDGHTDSLYGIGFGPFIITNKHLFRRNNGTLVVQSLHGVFKVKDTTTLQQHLVDGRDMIIIRMPKDFPPFPQKLKFREPQREERICLVTTNFQTKSMSSMVSDTSCTFPSGDGIFWKHWIQTKDGQCGSPLVSTRDGFIVGIHSASNFTNTNNYFTSVPKNFMELLTNQEAQQWVSGWRLNADSVLWGGHKVFMVKPEEPFQPVKEATQL [T31D]	0.0856	0.0941	0.0696	0.103			0.0719	0.116	0.0737	0.143	0.108				0.0962	0.0663
MGESLFKGPRDYNPISSSICHLTNESDGHTTSLYGIGFGPFIITNKHLFRRNNGTLVVQSLHGVFKVKDTTTLQQHLVDGRDMIIIRMPKDFPPFPQKLKFREPQREERICLVTTNFQTKSMSSMVSDTSCTFPSGDGIFWKHWIQTKDGQCGSPLVSTRDGFIVGIHSASNFTNTNNKFTSVPKNFMELLTNQEAQQWVSGWRLNADSVLWGGHKVFMVKPEEPFQPVKEATQL [Y179K]		0.0547	0.0658					0.0602	0.0611			0.0633	0.0466	0.0659	0.0334	0.0471
MGESLFKGPRDYNPISSSICHLTNESDGHTTSLYGIGFGPFIITNKHLFRRNNGTLVVQSLHGVFKVKDTTTLQQHLVDGRDMIIIRMPKDFPPFPQKLKFREPQRHERICLVTTNFQTKSMSSMVSDTSCTFPSGDGIFWKHWIQTKDGQCGSPLVSTRDGFIVGIHSASNFTNTNNYFTSVPKNFMELLTNQEAQQWVSGWRLNADSVLWGGHKVFMVKPEEPFQPVKEATQL [E107H]	0.0856		0.0711	0.0707			0.0575	0.105				0.038				0.0567
